# In all, about 380,000 compounds went through this assay and about 4,000 (1.1%) were called active. Inconclusive means that the source gave no clear call. Such entries were picked first, then a sample of the others. The call rests on the fitted dose curve; in most records, active means well fitted activation curve with a large enough effect; inconclusive means small, poorly fitted or top-dose-only effect; inactive means no such curve, though single readings can be large or run the other way. A potency beside an inconclusive call is a rough fit, not a confirmed value.
# Test: qHTS Assay to Identify Small Molecule Activators of BRCA1 Expression; further: nearly all actives have a fitted effect of over 80% in size
# Conditions: MCF7-BRCA1-FFLuc reporter, luminescence, 48 h; activation: at 46.1 µM (top of the series), scaled: vehicle 0%, 10 µM genistein 100% unless noted
# Excerpt: Functionally, BRCA1 has been implicated in a wide array of cellular activities, including DNA damage repair, cell-cycle checkpoint control, growth inhibition, apoptosis, transcriptional regulation, chromatin remodeling, protein ubiquitylation, and mammary stem cell self-renewal and differentiation. Reduction in BRCA1 levels is associated with an increase in tumor growth and resistance to anti-estrogenic agents, such as tamoxifen, while an increase in BRCA1 expression leads to cell growth arrest and apoptosis. […] The frequent loss of BRCA1 expression in invasive breast cancers in the absence of somatic mutation has been attributed to numerous mechanisms, including hypermethylation of the BRCA1 promoter, exaggerated ubiquitylation of BRCA1 protein, and improper intracellular localization. […] Basal-like breast cancers (BLBCs) are associated with an aggressive clinical course, resistance to chemotherapy, and typically lack expression of estrogen receptor (ER), progesterone receptor (PR), and epidermal growth factor receptor 2 (HER2). BLBCs account for 10-17% of all breast cancers, have few therapeutic options, and are considered the biggest unmet need in the treatment of breast cancer. Conversely, tumors which maintain expression of functional BRCA1 are almost uniformly luminal type cancers, and are accordingly associated with more indolent clinical courses, responsiveness to endocrine therapies, and improved survival.
# As such, it is possible that an increase in BRCA1 expression would enable cellular differentiation and restore tumor suppressor function, resulting in delayed tumor growth and less aggressive, more treatable breast cancers. The long term goal of this proposal is to develop a novel prevention or therapeutic agent for breast cancer patients. To accomplish this goal, the overall objective of this proposal is to access the resources provided by the NIH Molecular Libraries Roadmap Initiative and the Molecular Libraries Probe Production Centers Network (MLPCN) to discover and develop new chemical activator probes that will increase BRCA1 expression and function.
# NIH Molecular Libraries Probe Production Network [MLPCN]
# NIH Chemical Genomics Center [NCGC]
# PI Name: Lisa Harlan-Williams, University of Kansas Medical Center
# 5microl of MCF7-BRCA1-FFLuc cell suspension (400 cells/microl in phenol-red free MEM) are dispensed into Greiner white solid bottom 1536-well assay plates, yielding a final well density of 2000 cells/well. Plates are incubated for 2 hours at 37 degrees C in 5% humidified CO2 to allow cell attachment. Compounds are then transferred via Kalypsys pin tool equipped with 1536-pin array (10nl slotted pins, V&P Scientific, San Diego, CA). The plates are then incubated at 37 degrees C in 5% humidified CO2 for 48 hours. The NCGC in-house luciferase substrate reagent, Buglite, is then added (2.5microl) and plates incubated for 15 minutes, before being transferred to a ViewLux high-throughput CCD imager (PerkinElmer) wherein single end-point measurements of luminescence are acquired using a clear filter. The positive control compound, genistein, will be pinned into dedicated control columns on each plate, including a 16-point 1:3 titration in duplicate, as well as a 10microM maximum activation control, allowing for the normalization of screening activity. DMSO will be pinned into a separate column as a negative control.
# All screening operations will be performed on a fully integrated robotic system (Kalypsys, San Diego, CA) containing one RX-130 and two RX-90 anthropomorphic robotic arms (Staubli, Duncan, SC). Library plates will be screened starting from the lowest and proceeding to the highest concentration. Vehicle-only plates, with DMSO being pin-transferred to columns 5-48, will be inserted uniformly at the beginning and the end of each library in order to monitor and record any shifts in the background, which can be affected by reagent dispensers or loss in enzyme activity over time. […]
# Potency means the concentration at half of the fitted maximal effect; tags describe the fitted curve by direction and shape.
Structure (SMILES),Potency,activation
Cc1cc(-c2ccc(Br)cc2)n[nH]1,"inconclusive: 12.6 µM [activator, single point]",
Cc1cccc(C(=O)N2CCCC(c3nc(-c4ccc(C)o4)no3)C2)c1 (stereo unspecified),"inconclusive: 14.1 µM [activator, partial curve, poor fit]",
COc1cc(C2(c3ccc(O)c(OC)c3)C(=O)Nc3c(Br)cc(Br)cc32)ccc1O,inactive,
Cc1cccc2cc(CN(CC3CCCO3)C(=O)NC3CCCCC3)c(=O)[nH]c12 (stereo unspecified),inactive,
Cn1cc(-c2nnnn2-c2ccc(Cl)cc2)c(C(F)(F)F)n1,inactive,
CN(C)c1cccc(C(=O)Nc2cccc(F)c2)c1,inactive,
CO/N=C(\Cn1ncc(NC2CCCCC2)c(Br)c1=O)c1ccc(Cl)cc1,inactive,
C/C(N)=C(/C#N)C(=O)CSc1nnc(Nc2ccccc2C)s1,"inconclusive: 35.5 µM [activator, partial curve, poor fit]",
Clc1ccc(-c2nnc(-c3cccnc3)o2)cc1,active: 7.94 µM,
C=CCn1c(CCn2c3ccccc3c3ccccc32)n[nH]c1=S,inactive,
CN(C(=O)c1ccncc1)c1nnc(-c2ccccn2)s1,"inconclusive: 17.8 µM [activator, partial curve, poor fit]",
Cc1ccc(C(=O)NC(=S)N(C)C2CCCCC2)cc1,active: 8.91 µM,
Cc1csc(NC(=O)c2cnccn2)n1,"inconclusive: 11.2 µM [activator, partial curve, poor fit]",
O=C(NC1CCCC1)c1ccccc1OCc1ccccc1,inactive,
CC1CCN(C(=O)COC(=O)c2n[nH]c3ccccc23)CC1,"inconclusive: 1.58 µM [activator, full curve, poor fit]",
CCOC(=O)c1cccc(NS(=O)(=O)c2ccc(-c3coc(C)n3)cc2)c1,inactive,
Cc1ccc(C(=O)Nc2ncc(C)s2)s1,,inconclusive: -1.21% [activator]
CS(=O)(=O)c1ccc2nc(NC(=O)c3cc4ccccc4o3)sc2c1,"inconclusive: 35.5 µM [activator, single point]",
CCOCCCn1c(SCC(=O)NCc2ccccc2)nc2c(sc3ccccc32)c1=O,inactive,
O=C(NCCc1ccccc1)c1noc2c1CCc1ccccc1-2,"inconclusive: 20 µM [activator, partial curve, poor fit]",
COc1ccc(CNC(=O)C(C)N2CCN(S(=O)(=O)c3ccccc3F)CC2)cc1 (stereo unspecified),inactive,

Structure (SMILES),Potency,activation
NNC(=O)c1csc(-c2ccc(C(F)(F)F)cc2Cl)n1,inactive,
Cc1ccc(Cc2c(-c3ccc(C)cc3)nc3ccc(Br)cn23)cc1,"inconclusive: 10 µM [activator, partial curve, poor fit]",
CNC(C)C#Cc1ccc2c(=O)c3cc(C)c(C)cc3oc2c1 (stereo unspecified),"inconclusive: 0.501 µM [activator, full curve, poor fit]",
COc1ccc(N=C2NC(=O)S/C2=C\c2ccc(N(C)C)cc2)cc1,"inconclusive: 7.94 µM [activator, partial curve, poor fit]",
O=C(CSc1nc2ccccc2n1CC(=O)N1CCCC1)NCc1ccc2c(c1)OCO2,inactive,
Cc1cccc(-c2nc3cc([N+](=O)[O-])ccc3o2)c1,active: 2.51 µM,
COc1ccc(-n2nnc(-c3nsc(NC(=O)c4cccc(C)c4)n3)c2C)cc1OC,inactive,
O=C(/C=C/c1cnc2ccccc2n1)NC1CCCCCC1,"inconclusive: 1.58 µM [activator, full curve, poor fit]",
Cc1c(C(=O)O)cccc1-c1ccc(C=O)o1,active: 7.94 µM,
COC(=O)Cn1c(O)c(N=NC(=O)CNC(=O)c2ccncc2)c2ccccc21,inactive,
COCc1nc2oc3ccc(F)cc3c(=O)c2cc1C(=O)OC,active: 3.98 µM,
O=C(Cc1nc(=O)c2ccccc2s1)Nc1ccccc1,"inconclusive: 0.631 µM [activator, full curve, poor fit]",
CC(=O)c1ccc(CCCc2ccc(C(C)=O)cc2)cc1,"inconclusive: 2.24 µM [activator, full curve, poor fit]",
c1ccc(COc2ccc(CNCc3cccnc3)cc2)cc1,active: 10 µM,
S=c1[nH]nc(-c2cc(-c3ccccc3)n[nH]2)n1/N=C/c1ccc(Br)s1,inactive,
COc1ccc(/C=C2\C=Cc3ccccc32)cc1OC,inactive,
N/C(=N\C(=S)Nc1ccccc1)c1ccccc1,"inconclusive: 0.562 µM [activator, full curve, poor fit]",
CC(C)CNC(=O)C1Nc2ccccc2C2C=CCC12 (stereo unspecified),inactive,
CCOC(=O)c1ccc(NC(=O)C(=O)NCC2CCCO2)cc1 (stereo unspecified),"inconclusive: 35.5 µM [activator, single point]",
CN(C)c1ccc(/C=C/C(=O)c2ccccc2)cc1[N+](=O)[O-],"inconclusive: 25.1 µM [activator, single point]",
O=C(CCSc1ccccc1)NC1CCCCCC1,active: 7.08 µM,

Structure (SMILES),Potency,activation
Cc1ccc(-c2nc3ccccc3[nH]2)cc1NC(=O)c1ccco1,inactive,
Cc1ccc(NC2Nc3cc(C)nn3S2)c(C)c1 (stereo unspecified),"inconclusive: 11.2 µM [activator, partial curve, poor fit]",
c1ccc2oc(-c3ccc4nc[nH]c4c3)nc2c1,"inconclusive: 2.24 µM [activator, full curve, poor fit]",
O=C(CCS(=O)(=O)c1ccc(F)cc1)Nc1nc(-c2ccccn2)cs1,inactive,
S=C1CSc2ccccc2N1,inactive,
COc1cc(C(=O)Nc2ccc(Cl)c(C(F)(F)F)c2)cc(OC)c1OC,inactive,
c1ccc(N2CC3COc4ccccc4C3=N2)cc1 (stereo unspecified),inactive,
N#Cc1ccccc1COC(=O)c1ccc2c(c1)OCCO2,"inconclusive: 35.5 µM [activator, single point]",
C=CCc1cccc2cc(C(=O)Nc3ccccc3C(=O)O)c(=O)oc12,inactive,
COc1ccc(C2C=C(c3ccc(F)cc3)NC(=S)N2)cc1OC (stereo unspecified),"inconclusive: 35.5 µM [activator, single point]",
Cc1[nH]c2ccccc2c1/C=C(\C#N)C(=O)NC1CC1,"inconclusive: 14.1 µM [activator, partial curve, poor fit]",
CCN(CC)S(=O)(=O)c1cc(NC(=O)C2CCN(c3ncnc4sc(C)c(C)c34)CC2)ccc1Cl,inactive,
COCCCNc1ccn2nc(-c3ccccc3)cc2n1,"inconclusive: 0.501 µM [activator, full curve, poor fit]",
CCCCc1ccc(-c2csc(/C(C#N)=C\c3ccco3)n2)cc1,active: 10 µM,
COc1ccc(C2=NN(C(N)=S)C(c3ccco3)C2)cc1 (stereo unspecified),"inconclusive: 15.8 µM [activator, partial curve, poor fit]",
COc1ccc(C)cc1N1CC(C(=O)Nc2ccccc2C(=O)NC2CC2)CC1=O (stereo unspecified),inactive,
CC(C)CC(=O)Nc1nnc(-c2ccco2)s1,"inconclusive: 15.8 µM [activator, partial curve, poor fit]",
Cc1csc(NC(=O)CSc2nnnn2C)n1,"inconclusive: 35.5 µM [activator, single point]",
O=C(COC(=O)CCc1nc2ccccc2s1)Nc1nc(-c2ccccc2)cs1,"inconclusive: 20 µM [activator, single point]",
CSCC(=O)N1CCC(n2nccc2NC(=O)c2ccc3c(c2)OCO3)CC1,"inconclusive: 20 µM [activator, single point]",
COc1ccc(NC(=O)Nc2cc3oc4ccccc4c3cc2OC)cc1,inactive,

Structure (SMILES),Potency,activation
COc1ccc(OC)c(-c2csc(NC(=O)CSc3ccc([N+](=O)[O-])cc3)n2)c1,inactive,
O=C(NCc1ccco1)c1ccc2ccccc2c1,active: 11.2 µM,
O=c1cc(-c2ccccc2)oc2ccc(Br)cc12,"inconclusive: 1.26 µM [activator, full curve, poor fit]",
COc1cc2c(cc1OC)CN(C(=O)c1cccs1)CC2,inactive,
CS(=O)(=O)c1ccc2nc(NC(=O)c3cccc([N+](=O)[O-])c3)sc2c1,active: 5.62 µM,
Cc1nc(-c2cc(-c3nc(-c4ccc(C(F)(F)F)cc4)no3)no2)cs1,inactive,
COCCn1c(C)cc(/C=C2\NC(=S)N(C)C2=O)c1C,inactive,
O=C(Nc1ccc(-c2nc3cccnc3s2)cc1)c1cccnc1Cl,,inconclusive: 144% [activator]
Cc1cccc(C(=O)Nc2cccc(OC(=O)c3cccc(C)c3)c2)c1,"inconclusive: 35.5 µM [activator, single point]",
C(=N/N1CCN(c2ccccc2)CC1)/c1cccs1,"inconclusive: 11.2 µM [activator, partial curve, poor fit]",
Cc1cc2nc(-c3ccc(NC(=O)c4cccnc4)cc3)oc2cc1C,"inconclusive: 1.26 µM [activator, full curve, poor fit]",
O=C(CC(=O)c1ccccc1)Nc1cccnc1Cl,active: 7.08 µM,
CC(C)CNc1ncnc2onc(-c3ccc(Cl)cc3)c12,inactive,
CCc1ccc2nc(N(CCN(C)C)C(=O)c3ccc4ncsc4c3)sc2c1,"inconclusive: 2.24 µM [activator, full curve, poor fit]",
COc1ccccc1/C=C1\SC(=S)N(NS(=O)(=O)c2ccccc2)C1=O,inactive,
COC(=O)c1cc(-c2ccc(OC)cc2)n[nH]1,"inconclusive: 11.2 µM [activator, partial curve, poor fit]",
CCOc1ccc(-c2csc(C3COc4ccccc4O3)n2)cc1 (stereo unspecified),active: 10 µM,
O=C(C1CCCN(c2nnc(-n3cccc3)s2)C1)N1CCN(c2ccccc2)CC1 (stereo unspecified),inactive,

# Source: PubChem BioAssay AID624202 (National Center for Advancing Translational Sciences (NCATS), 2012)
